According to PubChem BioAssay AID1030 (National Center for Advancing Translational Sciences (NCATS), 2008):
“And” between values parts separate entries of the source, which are not always exact repeats. Identical values can stand only once. Among all 220,000 compounds or so, about 16,000 (7.3%) were called active. The shares of active, inactive and inconclusive entries below differ from those in the screen. The call rests on the fitted dose curve; in most records, active means well fitted inhibition curve with a large enough effect (not every such curve was filed as active); inconclusive means small, poorly fitted or top-dose-only effect, or another doubt; inactive means no such curve, though single readings can be large or run the other way. Where the call is inconclusive, the potency comes from a doubtful curve fit.

molecular target: Aldehyde dehydrogenase 1A1 (Homo sapiens) (UniProt P00352); assay: qHTS Assay for Inhibitors of Aldehyde Dehydrogenase 1 (ALDH1A1); conditions: Purified ALDH1A1, NADH fluorescence, propionaldehyde substrate; series mostly up to 75.3 µM
UniProt P00352, sequence (P00352 whole entry, looked up): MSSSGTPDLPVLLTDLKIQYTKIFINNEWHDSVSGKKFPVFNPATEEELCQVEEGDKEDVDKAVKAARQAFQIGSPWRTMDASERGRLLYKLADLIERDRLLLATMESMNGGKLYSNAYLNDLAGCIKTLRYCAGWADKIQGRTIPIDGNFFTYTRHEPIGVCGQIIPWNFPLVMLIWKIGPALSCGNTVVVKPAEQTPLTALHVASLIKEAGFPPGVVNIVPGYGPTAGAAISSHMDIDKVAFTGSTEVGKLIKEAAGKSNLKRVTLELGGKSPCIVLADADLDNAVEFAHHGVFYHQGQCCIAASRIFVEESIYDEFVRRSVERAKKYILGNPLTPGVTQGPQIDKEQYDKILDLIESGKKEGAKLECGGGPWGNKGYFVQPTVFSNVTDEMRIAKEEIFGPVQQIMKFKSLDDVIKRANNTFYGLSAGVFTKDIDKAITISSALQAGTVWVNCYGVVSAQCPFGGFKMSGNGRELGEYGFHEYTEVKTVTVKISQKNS
Potency means the concentration at half of the fitted maximal effect; tags describe the fitted curve by direction and shape.

SMILES | Potency
Cc1nn2c(-c3ccccn3)ccnc2c1Br | inactive
COc1ccc(N(C(=O)CS(=O)CC(=O)Nc2ccc(F)cc2)C(C(=O)NC2CCCCC2)c2cccs2)cc1 (stereo not drawn) | inactive
CC1=C([N+](=O)[O-])C(c2ccccc2)C2=C(N1)c1ccccc1C2=O (stereo not drawn) | inconclusive: 20 µM [inhibitor, partial curve]
CN1CCNC(=O)C1CC(=O)NCCC1=CCCCC1 (stereo not drawn) | inconclusive: 17.8 µM [inhibitor, single point]
COc1ccc(CC(=O)Nc2cccc(C)n2)cc1OC | inactive
COc1ccc2c(C)cc(SCC(=O)N(C)C3CCS(=O)(=O)C3)nc2c1 (stereo not drawn) | inconclusive: 44.7 µM [inhibitor, single point]
N/C(=N\OC(=O)CCCOc1ccccc1)c1ccccn1 | inactive
C=CCn1c(CSCc2ccccc2)nnc1SCC(=O)N1CCN(c2ccccc2)CC1 | active: 0.794 µM
COc1ccccc1-n1cc(-c2ccc(Cl)cc2)[nH]c1=O | active: 11.2 µM
COc1ccc(C)cc1S(=O)(=O)N(C)CC(=O)NCc1ccco1 | inconclusive: 39.8 µM [inhibitor, single point]
CN(C)c1nc(C(=O)NN)nc(N(C)C)n1 | active: 12.6 µM
CCN(CC)S(=O)(=O)c1ccc(C(=O)NCCc2cc3c(OC)ccc(OC)c3[nH]c2=O)cc1 | inconclusive: 17.8 µM [inhibitor, partial curve]
Cc1cc(C)n(CCNCc2c(C(=O)N3C[C@@H](C)O[C@@H](C)C3)nc3ccc(Cl)cn23)n1 | inactive
COc1ccc(CN2C(=O)Cc3c2nc(N)c2c(N)nc(N4CCCCC4)c(C#N)c32)cc1 | inactive
Cn1c(SCC(=O)NCCc2ccccc2)nnc1-c1ccco1 | inactive
COc1ccc(N2CCN(CC(=O)Nc3cccc(S(=O)(=O)N4CCOCC4)c3)CC2)cc1 | inconclusive: 22.4 µM [inhibitor, single point]
CCOc1ccc(C2c3[nH]c4ccccc4c3CCN2CCCn2cccn2)cc1 (stereo not drawn) | inconclusive: 39.8 µM [inhibitor, single point]
COc1ccc2[nH]c(-c3ccccc3)c(CCNC(C)=O)c2c1 | inconclusive: 31.6 µM [inhibitor, partial curve] and inconclusive: 25.1 µM [inhibitor, partial curve]
Cn1cc(-c2cccc(Cl)c2)cc(C#N)c1=O | inconclusive: 35.5 µM [inhibitor, single point]
CCOC(=O)C1Oc2ccccc2C(c2ccc(C)cc2)=C1C(=O)OC (stereo not drawn) | inconclusive: 50.1 µM [inhibitor, single point]
CCOc1cc(C2C(C#N)=C(N)Oc3n[nH]c(C)c32)ccc1OCCN1CCOCC1 (stereo not drawn) | inconclusive: 20 µM [inhibitor, partial curve]
COc1ccc([N+](=O)[O-])cc1N(CC(=O)NC(C(C)C)C(C)C)S(C)(=O)=O | inactive
CCn1c(Cc2ccccc2)nnc1SCC(=O)Nc1ccccc1 | inactive
CS(=O)(=O)N(CC(=O)N1CCCCCC1)Cc1ccc(Cl)cc1 | inconclusive: 14.1 µM [inhibitor, partial curve]
O=C1C=C(Nc2ccccc2)C(=O)c2ccccc21 | inconclusive: 39.8 µM [inhibitor, single point]

SMILES | Potency
CC(C)N1CCc2c(sc(NC(=O)CCc3ccccc3)c2C(N)=O)C1 | inconclusive: 39.8 µM [inhibitor, single point]
CCc1c(C)nc2cc(-c3ccc(OC)cc3)[nH]n2c1=O | inconclusive: 39.8 µM [inhibitor, single point]
COc1ccccc1NC(=O)N1CCC(C(=O)c2ccc(F)cc2)CC1 | inactive
COc1ccc(-c2nc(NC(=O)c3ccc(OCC(=O)Nc4ccc(F)cc4)c(OC)c3)sc2C)cc1 | inconclusive: 39.8 µM [inhibitor, single point]
CCOc1ccc(N2C(=O)CC(SCC(=O)O)C2=O)cc1 (stereo not drawn) | inconclusive: 39.8 µM [inhibitor, partial curve, poor fit]
CSc1ccc(S(=O)(=O)NCc2ccccc2Cl)cc1 | inconclusive: 7.94 µM [inhibitor, partial curve]
O=[N+]([O-])c1ccc(C2Nc3cccc4cccc(c34)N2)cc1 | inconclusive: 37.7 µM [inhibitor, single point]
O=C(Nc1ccccc1F)c1ccc(Cn2cc(Cl)cn2)cc1 | inconclusive: 28.2 µM [inhibitor, single point]
COc1cccc(NS(=O)(=O)c2ccc3c(c2)n(C)c(=O)c(=O)n3C)c1 | inconclusive: 31.6 µM [inhibitor, single point]
COCC(=O)N1CCC2(CCCN(C(=O)Nc3cccc(F)c3)C2)CC1 | inactive
CCOc1cc(C2NC(=O)NC(c3ccccc3)=C2C(C)=O)ccc1OCC(N)=O (stereo not drawn) | inconclusive: 22.4 µM [inhibitor, single point]
CCN(CC)c1ccc(C(=O)OCC(=O)Nc2cccc(S(=O)(=O)NC3=NCCCCC3)c2)cc1 | inconclusive: 28.2 µM [inhibitor, partial curve]
Cc1cc2ncn(/N=C/c3ccc([N+](=O)[O-])o3)c2cc1C | inactive
O=C1COc2ccc(C(=O)COC(=O)CNC(=O)c3ccco3)cc2N1 | inactive
O=C(NCC1CCN(Cc2ccccc2Cl)CC1)Nc1cccc(Cl)c1 | inactive
Oc1cccc(C=NCc2ccccc2)c1O | active: 8.91 µM
COc1ccccc1C(=O)NCC(=O)Nc1ccccc1 | inactive
COc1ccc(Cl)cc1NC(=O)NCc1ccco1 | inactive
Nc1cc(-c2ccccc2)ccc1O | inconclusive: 35.5 µM [inhibitor, single point] and inconclusive: 22.4 µM [inhibitor, partial curve]
CN(CC(=O)Nc1ccccc1Cl)CC(=O)Nc1ccccc1[N+](=O)[O-] | inactive
COc1cc2ccccc2cc1C(=O)Nc1ccccc1N1CCN(S(C)(=O)=O)CC1 | inconclusive: 25.1 µM [inhibitor, partial curve]
CCOc1ccccc1NC(=O)C1CCCN(S(=O)(=O)c2cccc3nsnc23)C1 (stereo not drawn) | inconclusive: 20 µM [inhibitor, partial curve]
C=CCn1nnc2sc3c(c2c1=O)CCC(C)C3 (stereo not drawn) | active: 17.8 µM
COc1cc(N(C)C)c([N+](=O)[O-])cc1C(=O)N1CCOCC1 | inactive
CCCCn1nc2cc(C(=O)NCc3ccc(C(F)(F)F)cc3C(F)(F)F)ccc2c1OCC | inconclusive: 39.8 µM [inhibitor, single point]

SMILES | Potency
Cn1c(COc2ccc(Br)cc2)nnc1SC1CCc2ccccc2C1=O (stereo not drawn) | active: 22.4 µM
c1cncc(-c2nnc3n2CCC3)c1 | inactive
CC(CNc1ccccc1O)C(=O)O (stereo not drawn) | inconclusive: 39.8 µM [inhibitor, single point]
Nc1nonc1C(=O)N/N=C/c1ccc(Br)o1 | inactive
Cc1nn(C(C)C(=O)N2CCCCC2)c(=O)c2c1sc1ccccc12 (stereo not drawn) | inconclusive: 39.8 µM [inhibitor, single point]
O=C(Nc1ccccc1Br)C1CC(=O)N(c2ccc3c4c(cccc24)CC3)C1 (stereo not drawn) | active: 20 µM
COc1ccc(Br)cc1/C=N/NC(=O)c1ccc(COc2ccc3c(c2)CCC3)o1 | inconclusive: 39.8 µM [inhibitor, single point]
Cc1ccccc1-c1n[nH]c(=S)n1C | inconclusive: 0.189 µM [inhibitor, full curve, poor fit]
CCN(CC)S(=O)(=O)c1ccc(C(=O)NCc2n[nH]c(=S)n2-c2ccc(Cl)c(Cl)c2)cc1 | active: 1.41 µM
Cc1ccc(CNC(=O)CCS(=O)(=O)c2cccc3nsnc23)cc1 | inactive
COc1ccc(CN(CCC(c2ccccc2)C2CCOC(C)(C)C2)C(C)=O)cc1 (stereo not drawn) | inconclusive: 28.2 µM [inhibitor, partial curve]
CS(=O)(=O)N(Cc1ccco1)Cc1ccccc1Cl | inactive
COCC(=O)Nc1ccccc1C(=O)Nc1ccc(OC)cc1 | inactive
O=C(CCn1nnc2ccccc21)Nc1nnc(Cc2ccccc2)s1 | inconclusive: 22.4 µM [inhibitor, single point]
COCCn1nnnc1C(c1cc2c(C)cc(C)cc2[nH]c1=O)N1CCCCCC1 (stereo not drawn) | inconclusive: 15.8 µM [inhibitor, partial curve]
N#CC1=C(N)N(c2ccc(F)cc2)C2=C(C1c1ccc(O)cc1)S(=O)(=O)CC2 (stereo not drawn) | active: 11.2 µM
CN(C)c1ncc(S(=O)(=O)c2ccc(Cl)cc2)c(-c2ccccc2)n1 | inconclusive: 39.8 µM [inhibitor, single point]
Cc1c(Cl)c(=O)oc2cc(OC(C)C)ccc12 | inconclusive: 28.2 µM [inhibitor, partial curve]
CCC1=NN2C(=N)/C(=C\c3ccc(OCc4cc(=O)n5nc(CC)sc5n4)c(OC)c3)C(=O)N=C2S1 | inconclusive: 14.1 µM [inhibitor, partial curve]
Cc1ccc(-c2nc3cc(Br)cnc3nc2-c2ccc(C)cc2)cc1 | inconclusive: 39.8 µM [inhibitor, single point]
COc1cc(C2Nc3cccc4cccc(c34)N2)cc(OC)c1OC(C)=O | inconclusive: 35.5 µM [inhibitor, single point]
COc1ccc2cc3cc(C(=O)NCCc4ccc(OC)c(OC)c4)oc3nc2c1 | inconclusive: 31.6 µM [inhibitor, partial curve]
c1ccc2c(c1)nnn2-c1ncnc2sc3c(c12)CCCC3 | inconclusive: 25.1 µM [inhibitor, partial curve]
